From patent publication US6384083B1, “USE OF ADAMANTANE AMINES OR STRUCTURALLY SIMILAR COMPOUNDS FOR COMBATING BORNA DISEASE VIRUS AND FOR THE PREVENTION AND TREATMENT OF AFFECTIVE DISEASES AND OTHER DISORDERS ASSOCIATED WITH BDV INFECTIONS IN HUMANS AND ANIMALS” (priority 1996, dated 2002)

System: BDV-Hu-H1
Assay: Inhibition of BDV replication in human oligodendroglia (OL) cells
Settings: 1.2 μg/mL

`NC12CC3CC(CC(C3)C1)C2` [amantadine sulfate] was tested, and the “time until virus titer is reduced to a level at which BDV can no longer be detected” value was 2 days.

Where a name gives a salt, the structure may show the parent alone.
